{"source": "patent US20240352013A1", "about": "“BICYCLIC FUSED PYRAZOLE DERIVATIVES FOR THE TREATMENT OF RESPIRATORY INFECTIONS INCLUDING RSV” (GEORGIA STATE UNIVERSITY RESEARCH FOUNDATION, INC., priority 2021, published 2024)", "test_system": "recRSV-A2line19F-[FireSmash]", "experiment": "Reporter-based dose-response antiviral assay, recRSV-fireSMASh in HEp-2 cells", "conditions": "human respiratory syncytial virus", "key": {"[1]": {"conditions": "HEp-2, read-out: HEp-2 C50 (first)"}}, "note": "Read-outs that look alike come from different tables or passages of the source."}
{"molecule": "COc1c(F)c(F)c(Cn2c3cc(=O)n(Cc4cccc(Cl)n4)c(C)c3c(=O)n2-c2ccccn2)c(F)c1F", "note": "[AVG-389]", "values": [{"measurement": "EC50", "setting": "[1]", "value": 0.09, "unit": "µM"}]}
{"molecule": "Cc1c2c(=O)n(-c3ccccn3)n(Cc3c(Cl)cccc3Cl)c2cc(=O)n1Cc1cccc(C(F)(F)F)n1", "note": "[AVG-445]", "values": [{"measurement": "EC50", "setting": "HEp-2, 48 h", "value": 0.198, "unit": "µM"}, {"measurement": "EC50", "setting": "[1]", "value": 0.2, "unit": "µM"}]}
{"molecule": "Cc1c2c(=O)n(-c3ccccn3)n(Cc3c(Cl)cccc3Cl)c2cc(=O)n1Cc1cccc(C(F)(F)F)c1", "note": "[AVG-446]", "values": [{"measurement": "EC50", "setting": "HEp-2, 48 h", "value": 0.236, "unit": "µM"}]}
{"molecule": "COc1c(F)c(F)c(Cn2c3cc(=O)n(Cc4cccc(C(F)(F)F)n4)c(C)c3c(=O)n2-c2ccccn2)c(F)c1F", "note": "[AVG-435]", "values": [{"measurement": "EC50", "setting": "HEp-2, 48 h", "value": 0.085, "unit": "µM"}, {"measurement": "EC50", "setting": "[1]", "value": 0.2, "unit": "µM"}]}
{"molecule": "COc1ccc(Cn2c3cc(=O)n(Cc4cccc(C(F)(F)F)n4)c(C)c3c(=O)n2-c2ccccn2)cc1", "note": "[AVG-436]", "values": [{"measurement": "EC50", "setting": "HEp-2, 48 h", "value": 0.203, "unit": "µM"}, {"measurement": "EC50", "setting": "[1]", "value": 0.08, "unit": "µM"}]}
{"molecule": "COc1ccc(Cn2c3cc(=O)n(Cc4cccc(Cl)n4)c(C)c3c(=O)n2-c2ncc(F)cc2F)cc1", "note": "[AVG-391]", "values": [{"measurement": "EC50", "setting": "[1]", "value": 0.96, "unit": "µM"}]}
{"molecule": "COc1c(F)c(F)c(Cn2c3cc(=O)n(Cc4cccc(C(F)(F)F)n4)c(C)c3c(=O)n2-c2ncc(F)cc2F)c(F)c1F", "note": "[AVG-388]", "values": [{"measurement": "EC50", "setting": "HEp-2", "value": 0.09, "unit": "µM"}, {"measurement": "EC50", "setting": "HEp-2, 48 h", "value": 0.053, "unit": "µM"}, {"measurement": "EC50", "setting": "[1]", "value": 0.05, "unit": "µM"}]}
{"molecule": "COc1c(F)c(F)c(Cn2c3cc(=O)n(Cc4cccc(Cl)n4)c(C)c3c(=O)n2-c2ncc(F)cc2F)c(F)c1F", "note": "[AVG-390]", "values": [{"measurement": "EC50", "setting": "HEp-2, 48 h", "value": 0.115, "unit": "µM"}, {"measurement": "EC50", "setting": "[1]", "value": 0.11, "unit": "µM"}]}
{"molecule": "COc1ccc(Cn2c3cc(=O)n(Cc4cccc(C(F)(F)F)n4)c(C)c3c(=O)n2-c2ncc(F)cc2F)cc1", "note": "[AVG-392]", "values": [{"measurement": "EC50", "setting": "[1]", "value": 0.81, "unit": "µM"}]}
